Results: the supplement of paper PMC10338343
± gives the standard deviation. This is a selection; strong and weak results do not stand in their true shares.

Tested on: MIWI (PIWIL1) piRISC loaded with L1MC piRNA (30 nt)
Assay: pre-steady-state target cleavage rate (min^-1); MIWI and MILI are mouse PIWI proteins and EfPiwi is from a freshwater sponge; tags in brackets are library labels; higher = faster piRNA-guided slicing of the target
Conditions: guide: L1MC piRNA 5'p-UAACUAAAUACUAUGCAAGCUGUAGGUCCU; auxiliary factor: 500 nM mouse GTSF1
Method in brief: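 Reactions were run for 0–8 or 0–960 min at 33 °C in HEPES–potassium acetate buffer, combining 1 nM active affinity-purified piRISC with one synthetic guide, […] transcribed, DNA-blocked target RNA library and, in some cases, 500 nM GTSF1 partner protein. Sequencing of uncleaved targets followed, with normalisation to depth and to weakly complementary targets. Three trials were pooled, k3 was capped at 0.0001 min^-1, and the pre-steady-state cleavage rate was taken from a burst-and-steady-state fit.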
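Also: 1 nM active piRISC with 0.1 nM target library at 33 °C single turnover.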

Going from UCGACCUACAGGAAGCAUAGUAUUUAGAAA to UCCUGGAUGUCGAUGCAUAGUAUCUAGUUA, the “pre-steady-state target cleavage rate” value falls from 0.181 ± 0.028 to 0.00955 ± 0.0041.

Going from UCCUGGAUCAGCAAGCAUAGUAUUUAGUAA to UCCUGGUACUCCUUGCAUAGUAUUUUCAAA, the “pre-steady-state target cleavage rate” value falls from 0.0752 ± 0.012 to 0.0158 ± 0.0069.

UCGACCUACAGCUUGCUAAGUAUUUUCAAA and UCCUGCUACAGCUUGCAUACAUUUUAGUUA are within error of each other in “pre-steady-state target cleavage rate” value: 0.00985 ± 0.0046 for the first, 0.0106 ± 0.0058 for the second.

First: UCCACCUACAGCUUCCAUAGUAUUUAGAAA
Second: UCCACCUACACGUUGCAUAGUAUUUUCAAA
The “pre-steady-state target cleavage rate” value of the first is lower: 0.0141 ± 0.0076 for the first, 0.22 ± 0.036 for the second.

Going from UCCUGGAUGUCGUUGCAUGAGUAUUUAGUUA to UGGACCUACAGCUUCCAUAGUUUUUAGUUA, the “pre-steady-state target cleavage rate” value rises from under 0.0001 to 0.00643 ± 0.0024.

First: UCCUGGUACUGCUUGCAUAGUAUUUACAAA
Second: UGGACCUACAGCUUGCAAUCUAUUUAGUUA
The “pre-steady-state target cleavage rate” value of the first is lower: 0.0877 ± 0.021 for the first, 0.207 ± 0.022 for the second.

Compared with UCCUGGAUGUCGAUGCAUAGUACUUAGUUA, UCCUCCUACAGCUUCCAUAGUAAUUAGUUA is higher in “pre-steady-state target cleavage rate” value: 0.00401 ± 0.0026 for the first, 0.0848 ± 0.027 for the second.

Going from UCCUGGAUGUCGAACGUAUCUAUUUAGUAUA to UCCUGGAUGUCCUUGCAAAGUUUUUAGUUA, the “pre-steady-state target cleavage rate” value rises from under 0.0001 to 0.00466 ± 0.0041.

UCCUGGAUGAGGUUGCAUAGUAUUUAGAUA and UCCUGGUACUCGUUGCAUAGUAUUUAGUAA are within error of each other in “pre-steady-state target cleavage rate” value: 0.0173 ± 0.0062 for the first, 0.0165 ± 0.0088 for the second.

Going from UCCUGGUACAGGUUGCAUAGUAUUUACAAA to UCCUCCUACAGCUUGCAUACAAUUUAGUAA, the “pre-steady-state target cleavage rate” value falls from 0.0866 ± 0.018 to 0.0263 ± 0.012.

Compared with UCCUGGAACAGGUUGCAUAGUAUUUACAAA, UCCUGGAACUCGUUGCAUAGUAUUUACAAA is lower in “pre-steady-state target cleavage rate” value: 0.15 ± 0.022 for the first, 0.0127 ± 0.0048 for the second.

UCCUGGAUGUCCUUGCAUAGUAUUUAGCUA and UCCUGGAUGAGCUUGCAUAGUAAAAAGUUA are within error of each other in “pre-steady-state target cleavage rate” value: 0.0193 ± 0.0067 for the first, 0.0147 ± 0.0047 for the second.
